Source: PubChem BioAssay AID360 (National Center for Advancing Translational Sciences (NCATS), 2006)
Screen size: about 48,000 compounds; about 550 (1.1%) were called active. About 4% were inconclusive and are not listed. Cut-off read from the data, not from the text of the source: active = potency below about 15 µM; inconclusive = mostly about 16 µM to 33 µM; inactive = weaker than that. The list shows a part of the results.

Molecular target: Lysosomal acid glucosylceramidase (Homo sapiens) (UniProt P04062)
Assay: Glucocerebrosidase;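 note: the screen sought inhibitors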
Settings: purified enzyme, resorufin glucoside fluorescence (screen aimed at inhibitors), 20 min; series mostly up to 77 µM
Procedure, shortened: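 Compounds titrated against 0.2 nM normal enzyme, 30 uM resorufin beta-D-glucopyranoside substrate, citrate/phosphate buffer with taurocholate and tween-20, pH 5.9. Reaction ran 20 min at room temperature; fluorescence (Ex 548/Em 600) gave AC50.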
Potency is the fitted concentration of half-maximal effect.

UniProt P04062, sequence (P04062 whole entry, looked up): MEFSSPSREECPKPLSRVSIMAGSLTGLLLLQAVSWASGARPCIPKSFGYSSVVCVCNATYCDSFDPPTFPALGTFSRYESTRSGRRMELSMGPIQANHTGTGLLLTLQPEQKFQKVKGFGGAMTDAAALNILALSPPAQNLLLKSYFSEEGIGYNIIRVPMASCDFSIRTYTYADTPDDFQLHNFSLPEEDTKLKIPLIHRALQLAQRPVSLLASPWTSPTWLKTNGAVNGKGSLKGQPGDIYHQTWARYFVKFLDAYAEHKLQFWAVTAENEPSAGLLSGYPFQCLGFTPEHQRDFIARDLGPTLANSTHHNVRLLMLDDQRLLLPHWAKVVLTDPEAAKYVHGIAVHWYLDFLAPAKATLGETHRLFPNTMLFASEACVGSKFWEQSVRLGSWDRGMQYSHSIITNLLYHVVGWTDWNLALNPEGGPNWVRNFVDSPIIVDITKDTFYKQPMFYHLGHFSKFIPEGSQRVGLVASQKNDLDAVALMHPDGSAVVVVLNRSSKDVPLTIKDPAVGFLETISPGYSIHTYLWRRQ

Potency, inactive:
Cn1c2c(c(=O)n(C)c1=O)C(NC(=O)c1ccco1)(C(F)(F)F)C(=O)N2 (centres undefined) > 76.9 µM, COc1ccccc1NC(=O)C1C2C=CC(O2)C1C(=O)O (centres undefined) > 76.9 µM, CCOC(=O)N1CCN(C(=O)c2ccc3c(=O)n(Cc4ccc(Cl)cc4)c(=S)[nH]c3c2)CC1 > 76.9 µM, COc1cccc2cc(C(=O)NC(C)C3CCCO3)c(=O)oc12 (centres undefined) > 76.9 µM, O=C(NCc1cccs1)C1CC(=O)N(c2ccc(F)cc2)C1 (centres undefined) > 76.9 µM, O=C1CCCN1CN(C(=O)c1ccc2c(c1)OCO2)c1ccc(F)cc1 > 76.9 µM, Cn1cc(SCC(=O)Nc2nc3ccccc3s2)c2ccccc21 > 76.9 µM, O=C(CCn1c(=O)[nH]c2ccsc2c1=O)N1CCN(Cc2ccc3c(c2)OCO3)CC1 > 76.9 µM, O=C(COC(=O)C1(c2ccc(F)cc2)CCCC1)N1CCOCC1 > 76.9 µM, O=C(Cn1nc(C(=O)O)c2ccccc2c1=O)NCC1CCCO1 (centres undefined) > 76.9 µM, CCn1c(SCC(=O)O)nnc1-c1ccccc1 > 76.9 µM, CN1CCN(C(=O)c2cc3c(ccc4ccccc43)oc2=O)CC1 > 76.9 µM, CCCOC(=O)C1=C(C)NC2=C(C(=O)CCC2)C1c1cccs1 (centres undefined) > 76.9 µM, CCOC(=O)N1CCC(Nc2nc3ccccc3n3nnnc23)CC1 > 76.9 µM, CC(C)CCn1c(SCCN2CCOCC2)nc2c1c(=O)[nH]c(=O)n2C > 76.9 µM, CCCCSCCCNC(=O)Nc1cccc(OC)c1 > 76.9 µM, CCOC(=O)c1ccc(-n2c(N)c(C(=O)NCc3ccco3)sc2=S)cc1 > 76.9 µM, CCOC(=O)c1ccc2nc3c(cc2c1)CCS3, CC1=NCCN1S(=O)(=O)c1ccc(Br)c(C)c1 > 76.9 µM, CN(C)C(=O)N1CCCC(C(=O)NCc2ccc(F)cc2Cl)C1 (centres undefined) > 76.9 µM, COc1ccc(C2C(C(=O)N3CCCCC3)c3ccccc3C(=O)N2C)cc1 (centres undefined) > 76.9 µM, N#Cc1c(N)nc(SCC(=O)NC2CCCCC2)c(C#N)c1-c1ccc(Cl)cc1 > 76.9 µM, O=C(CS(=O)(=O)c1ccccc1)c1ccc2c(c1)OCCO2 > 76.9 µM, COC(=O)c1ccc(C(=O)Nc2ccc(N)cc2N)cc1 > 15.4 µM, COCC(=O)n1nc(NCc2ccc(OC)cc2)nc1NCc1ccc(OC)cc1 > 76.9 µM, Cc1ccc(C(=O)NC=C(Cl)Cl)cc1 > 76.9 µM, O=C(CSc1nc(-c2ccco2)cc(C(F)(F)F)n1)NCC1CCCO1 (centres undefined) > 76.9 µM, Cn1c(=O)c2c(ncn2CC(=O)NC(C)(C)C)n(C)c1=O > 76.9 µM, O=C(CN1C(=O)COc2ccc(Cl)cc21)N1CCc2ccccc21 > 76.9 µM, CN(c1ccc(C(=O)O)cc1)S(=O)(=O)c1ccc(Cl)cc1 > 76.9 µM, O=C(O)CCS(=O)(=O)c1cccc2cccnc12 > 76.9 µM, C/C(N)=C(/C#N)C(=O)COC(=O)CCSc1ccccc1 > 76.9 µM, CC(=O)C1=C(O)C(=O)N(CCN(C)C)C1c1ccc(Cl)cc1 (centres undefined) > 76.9 µM, CCOC(=O)N1CCN(C(=O)c2cnn3c(C)c(Cc4ccc(C)cc4)c(C)nc23)CC1 > 76.9 µM, CC1(C)Oc2ccc(NC(=O)C3COc4ccccc4O3)cc2O1 (centres undefined) > 76.9 µM, Cc1ccc(NC(=O)C2C3CC4OC(=O)C2C4C3)cc1Cl (centres undefined) > 76.9 µM, CC12C(=O)N(Cc3ccccc3)C(=O)C1C1C=CC2C1 (centres undefined) > 76.9 µM, N#CC1=C(N)SC(N)=C(C#N)C1CCc1ccccc1 > 76.9 µM, O=S1(=O)N=C(Nc2ccc(S(=O)(=O)N3CCCCC3)cc2)c2ccccc21 > 76.9 µM, CCOC(=O)c1cnc(-n2nc(C)cc2C)nc1NC(C)c1ccccc1 (centres undefined) > 76.9 µM, N#CC1=C2C=CC=CN2CC1=O > 76.9 µM, NC(=O)CSc1nnc(-c2ccc(S(=O)(=O)N3CCOCC3)cc2)n1CC1CCCO1 (centres undefined) > 76.9 µM, Cc1ccccc1OCC(=O)Nc1ccc(N2CCN(S(C)(=O)=O)CC2)cc1 > 76.9 µM, Cc1cc(=O)[nH]c2n[nH]c(-c3ccccc3)c12 > 76.9 µM, NC(=O)c1ccsc1NC(=O)COc1ccccc1 > 76.9 µM, CSc1ccccc1NC(=O)c1cnccn1 > 76.9 µM, COc1cccc(NC(=O)CSc2ccccn2)c1 > 76.9 µM, CSCCC(NC(=O)C1CCC(C)CC1)C(=O)NCc1ccco1 (centres undefined) > 76.9 µM, CCOC(=O)N1CCN(c2c(NCCc3ccc(OCC)c(OCC)c3)c(=O)c2=O)CC1 > 76.9 µM, O=C(O)c1ccc2c(c1)C(=O)N(Cc1ccccc1)C2=O > 76.9 µM, COC(=O)CCc1c(C)c(C#N)c2nc3ccccc3n2c1N1CCCC1 > 76.9 µM, CCOC(=O)CSc1nnc(-c2ccc(S(=O)(=O)N3CCC(C)CC3)cc2)o1 > 76.9 µM, Cc1cc(C)cc(NC(=O)CCNS(=O)(=O)c2ccc3c(c2)oc(=O)n3C)c1 > 76.9 µM, COc1ccc(-c2coc3cc(O)ccc3c2=O)cc1OC > 76.9 µM, CCCCc1ccc(-c2ccc(C)cc2O)nc1 > 76.9 µM, Cn1c(=O)c2c(nc(CN3CCN(c4cccc(Cl)c4)CC3)n2CCc2ccccc2)n(C)c1=O > 76.9 µM, O=S(=O)(NCCc1ccccn1)c1cccs1 > 76.9 µM, C=CCn1c(SCC(=O)NC2CCS(=O)(=O)C2)nc2scc(C3CC3)c2c1=O (centres undefined) > 76.9 µM, O=C(CSc1nc(O)cc(=O)n1-c1ccccc1)N1CCCCC1 > 76.9 µM, Cc1cccc(C)c1OCCOCCN1CCN(C)CC1 > 76.9 µM, COc1ccc(CCNS(=O)(=O)c2cccs2)cc1 > 76.9 µM, CCn1c(COc2ccccc2)nnc1SCC(=O)C(C)(C)C > 76.9 µM, CCn1c(COc2ccc(Cl)c(C)c2)nnc1SCC(=O)N1CCCC1 > 76.9 µM, Cc1ccc(NC(=O)COC(=O)CCc2c[nH]c(=O)[nH]2)cc1 > 76.9 µM, Cc1nnc(SCSc2nnc(C)s2)s1 > 76.9 µM, Cn1c(=O)n(CCCOc2ccc(Cl)cc2)c2ccccc21 > 76.9 µM, COC(=O)c1cc(OC)c(OC)cc1NC(=O)c1c(-c2ccccc2)noc1C > 76.9 µM, COc1ccc(N2C(=O)C3CCCN3C2c2ccc(C)cc2)cc1Cl (centres undefined) > 76.9 µM, O=C1NCCCc2c1no[n+]2[O-] > 76.9 µM, CCCCCCn1c(SCC(C)C)nc2c1c(=O)[nH]c(=O)n2C > 76.9 µM, CCCC(=O)Nc1cnc(NC(=O)c2cccc(F)c2)cc1C > 76.9 µM, C1CCN(c2nc(N3CCCC3)nc(N3CCNCC3)n2)C1 > 76.9 µM, Cc1ccc2cccc(S(=O)(=O)Nc3ccc4c(c3)OCO4)c2n1, CCC(=O)Nn1c(C)nnc1C > 76.9 µM, COc1cc(C2C(C#N)=C(C)NC3=C2C(=O)CC(C)(C)C3)cc(OC)c1O (centres undefined) > 76.9 µM, COc1cc(C(=O)NCc2ccc3c(c2)OCO3)ccc1OCc1c(C)noc1C > 76.9 µM, COc1cc(C(C(=O)NC(C)(C)C)N(Cc2ccccc2)C(=O)c2cnccn2)cc(OC)c1OC (centres undefined) > 76.9 µM, COc1ccc(S(=O)(=O)N2CCOCC2)cc1C(C)C > 76.9 µM, Cc1ccc(Cc2c(C)nc3nc(SCC(=O)NCc4ccco4)nn3c2C)cc1 > 76.9 µM, COc1ccc(NC(=O)N2CCN(c3cccc(C(F)(F)F)c3)CC2)cc1 > 76.9 µM, CCCCN(CCCC)Cc1ccc(N)cc1 > 76.9 µM, NC(=O)c1ccc(-n2nnnc2SCC(=O)Nc2ccc(N3CCOCC3)c(Cl)c2)cc1 > 76.9 µM, Cc1ccc(-c2nn(C)c(=O)c3ccccc23)cc1CO > 76.9 µM, C=CCn1c(SCC(=O)Nc2c(C)cccc2C)nnc1-c1ccncc1 > 76.9 µM, O=C(/C=N/O)NCCCn1ccnc1 > 76.9 µM, O=C(CSc1nnc(Nc2ccccc2)s1)NCc1ccco1 > 76.9 µM, O=C1C2C3C=CC(C3)C2C(=O)N1c1ccc2c(c1)CCC2 (centres undefined) > 76.9 µM, O=S(=O)(Nc1ccc(N2CCOCC2)cc1)c1cccs1 > 76.9 µM, CCCCSc1nnc(-c2ccc(C)cc2)o1 > 76.9 µM, Cc1c(C(=O)N2CCN(c3ccc(F)cc3)CC2)sc2nc(-c3ccccc3)cn12 > 76.9 µM, Cc1cccc2c(=O)cc(C)n(CC(=O)N3CCCCC3)c12 > 76.9 µM, Cc1onc(-c2ccccc2Cl)c1C(=O)NCCN1CCOCC1 > 76.9 µM, COc1ccc(C2=NOC(C(=O)NC(C)(C)C)C2)cc1 (centres undefined) > 76.9 µM, O=C(NCc1ccco1)c1ccc(CS(=O)(=O)c2cccc(C(F)(F)F)c2)o1 > 76.9 µM
